Results taken from the supplement of paper PMC10126150.
Sequences with one replicate were seen in a single cluster, so their values are uncertain.

Test system: ATP
Test: switch fluorescence ratio, 500 uM ATP over buffer (Cy3 cluster intensity, sum of 5 cycles each) (fold (ratio)); higher = stronger signal-on switching upon ATP binding; sequences stand for … in TCGTCGGCAGCGTCAGATGTGTATAAGAGACAGTTTTTTTTTTTTTTTTTTTTTTTTT…TC
Details: aptamer strand: ATP DNA aptamer (quencher-CACCTGGGGGAGTATTGCGGAGGAAGG + anchor), 100 nM annealed; ATP concentration: 500 uM; one replicate
In short: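 The quencher-labelled ATP aptamer, at 100 nM, was annealed to Cy3-labelled switching-strand clusters on a modified Illumina MiSeq flow-cell. The clusters were imaged in selection buffer, then after 15 min with 500 uM ATP at 22 °C, and this buffer/ATP cycle ran five times with NaOH stripping and re-annealing between runs. Per-cluster fluorescence ratios, summed target-cycle over summed buffer-cycle Cy3 intensity, were averaged per switch-domain sequence. Clusters outside 100-1000 RFU were excluded.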
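Note: ATP exposure 15 min at 22 °C before imaging.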

Which switch fluorescence ratio does the source give for TTACGAATGT here?
Its switch fluorescence ratio is 1.

How did the switch fluorescence ratio turn out when TTACGAGGTT was run?
Its switch fluorescence ratio is 1.

How did the switch fluorescence ratio turn out when TTACGAGTCG was run?
Its switch fluorescence ratio is 1.01.

Which switch fluorescence ratio does the source give for TTACGAGTTA here?
The switch fluorescence ratio was 1.02.

For TTACGATGAA, which switch fluorescence ratio is on record?
Its switch fluorescence ratio is 1.04.

TTACGATGTA was tested. Which switch fluorescence ratio did it give?
Its switch fluorescence ratio is 1.03.

TTACGCAGGG was tested. Which switch fluorescence ratio did it give?
Its switch fluorescence ratio is 1.03.

Which switch fluorescence ratio does the source give for TTACGCTGGA here?
The switch fluorescence ratio was 1.14.

Which switch fluorescence ratio does the source give for TTACGGGAG here?
The switch fluorescence ratio was 1.05.

For TTACGGGCAG, which switch fluorescence ratio is on record?
Its switch fluorescence ratio is 0.994.

TTACGGGCCT was tested. Which switch fluorescence ratio did it give?
The switch fluorescence ratio was 1.07.

TTACGGGGCG was tested. Which switch fluorescence ratio did it give?
Its switch fluorescence ratio is 1.03.

With TTACGTAGTA as the sequence, how does the switch fluorescence ratio read?
The switch fluorescence ratio was 0.973.

TTACGTCAAT was tested. Which switch fluorescence ratio did it give?
The switch fluorescence ratio was 1.52.

For TTACGTCCGC, which switch fluorescence ratio is on record?
Its switch fluorescence ratio is 1.38.

Which switch fluorescence ratio does the source give for TTACTAGGAA here?
The switch fluorescence ratio was 0.992.

For TTACTTGTCA, which switch fluorescence ratio is on record?
The switch fluorescence ratio was 0.977.

With TTAGAAGATA as the sequence, how does the switch fluorescence ratio read?
Its switch fluorescence ratio is 1.01.

How did the switch fluorescence ratio turn out when TTAGACGTAT was run?
The switch fluorescence ratio was 1.

TTAGACTGAT was tested. Which switch fluorescence ratio did it give?
Its switch fluorescence ratio is 1.04.

TTAGACTGGG was tested. Which switch fluorescence ratio did it give?
The switch fluorescence ratio was 1.06.

How did the switch fluorescence ratio turn out when TTAGAGTTTT was run?
The switch fluorescence ratio was 0.97.

With TTAGATGGG as the sequence, how does the switch fluorescence ratio read?
The switch fluorescence ratio was 0.988.

For TTAGCACGTG, which switch fluorescence ratio is on record?
Its switch fluorescence ratio is 0.989.

TTAGCATACT was tested. Which switch fluorescence ratio did it give?
Its switch fluorescence ratio is 1.97.

With TTAGCCCGGA as the sequence, how does the switch fluorescence ratio read?
Its switch fluorescence ratio is 0.97.

TTAGCGATTG was tested. Which switch fluorescence ratio did it give?
Its switch fluorescence ratio is 1.43.

How did the switch fluorescence ratio turn out when TTAGCGCGAT was run?
Its switch fluorescence ratio is 1.1.

How did the switch fluorescence ratio turn out when TTAGCGGGGC was run?
Its switch fluorescence ratio is 1.04.

TTAGCGGGTC was tested. Which switch fluorescence ratio did it give?
The switch fluorescence ratio was 1.03.

Which switch fluorescence ratio does the source give for TTAGCGGTCC here?
Its switch fluorescence ratio is 1.03.

For TTAGCTCG, which switch fluorescence ratio is on record?
Its switch fluorescence ratio is 0.984.

TTAGCTCGGT was tested. Which switch fluorescence ratio did it give?
The switch fluorescence ratio was 1.01.

TTAGCTCGTA was tested. Which switch fluorescence ratio did it give?
The switch fluorescence ratio was 1.01.

For TTAGGACGG, which switch fluorescence ratio is on record?
The switch fluorescence ratio was 1.07.

With TTAGGATCAC as the sequence, how does the switch fluorescence ratio read?
Its switch fluorescence ratio is 1.08.

With TTAGGCACGG as the sequence, how does the switch fluorescence ratio read?
The switch fluorescence ratio was 0.991.

How did the switch fluorescence ratio turn out when TTAGGCTCTT was run?
Its switch fluorescence ratio is 1.02.

Which switch fluorescence ratio does the source give for TTAGGGAAGC here?
Its switch fluorescence ratio is 0.954.

With TTAGGGCGAT as the sequence, how does the switch fluorescence ratio read?
Its switch fluorescence ratio is 0.975.

For TTAGGGGCCT, which switch fluorescence ratio is on record?
Its switch fluorescence ratio is 0.984.

Which switch fluorescence ratio does the source give for TTAGGGGTT here?
Its switch fluorescence ratio is 0.99.

For TTAGGTGCCA, which switch fluorescence ratio is on record?
The switch fluorescence ratio was 1.48.

With TTAGTAATTT as the sequence, how does the switch fluorescence ratio read?
Its switch fluorescence ratio is 1.13.

For TTAGTACTCG, which switch fluorescence ratio is on record?
Its switch fluorescence ratio is 0.993.

TTAGTCCGGC was tested. Which switch fluorescence ratio did it give?
Its switch fluorescence ratio is 1.25.

Which switch fluorescence ratio does the source give for TTAGTCGTG here?
The switch fluorescence ratio was 1.03.

TTAGTGCCC was tested. Which switch fluorescence ratio did it give?
The switch fluorescence ratio was 1.08.

Which switch fluorescence ratio does the source give for TTAGTGCGC here?
Its switch fluorescence ratio is 1.48.

With TTAGTGGCAA as the sequence, how does the switch fluorescence ratio read?
Its switch fluorescence ratio is 1.36.

For TTAGTGTGGC, which switch fluorescence ratio is on record?
Its switch fluorescence ratio is 0.985.

TTAGTGTGGG was tested. Which switch fluorescence ratio did it give?
The switch fluorescence ratio was 1.04.

For TTAGTTAA, which switch fluorescence ratio is on record?
Its switch fluorescence ratio is 1.02.

TTAGTTGAC was tested. Which switch fluorescence ratio did it give?
Its switch fluorescence ratio is 1.03.

Which switch fluorescence ratio does the source give for TTATAATCAT here?
The switch fluorescence ratio was 0.941.

Which switch fluorescence ratio does the source give for TTATAATGAC here?
The switch fluorescence ratio was 0.931.

With TTATACCAGC as the sequence, how does the switch fluorescence ratio read?
The switch fluorescence ratio was 1.01.

Which switch fluorescence ratio does the source give for TTATACTCGT here?
The switch fluorescence ratio was 0.985.

With TTATAGATCA as the sequence, how does the switch fluorescence ratio read?
Its switch fluorescence ratio is 1.03.

With TTATAGCACG as the sequence, how does the switch fluorescence ratio read?
Its switch fluorescence ratio is 1.15.

With TTATAGCGCG as the sequence, how does the switch fluorescence ratio read?
The switch fluorescence ratio was 0.989.

How did the switch fluorescence ratio turn out when TTATATACCG was run?
Its switch fluorescence ratio is 0.977.

With TTATATGAGT as the sequence, how does the switch fluorescence ratio read?
The switch fluorescence ratio was 1.05.

For TTATCCCGT, which switch fluorescence ratio is on record?
Its switch fluorescence ratio is 0.98.

TTATCCGCTT was tested. Which switch fluorescence ratio did it give?
Its switch fluorescence ratio is 2.62.

How did the switch fluorescence ratio turn out when TTATCCGGC was run?
The switch fluorescence ratio was 0.96.

With TTATCGCACG as the sequence, how does the switch fluorescence ratio read?
The switch fluorescence ratio was 1.39.

TTATGACTGC was tested. Which switch fluorescence ratio did it give?
The switch fluorescence ratio was 0.981.

With TTATGATCTT as the sequence, how does the switch fluorescence ratio read?
Its switch fluorescence ratio is 0.97.

With TTATGATGTC as the sequence, how does the switch fluorescence ratio read?
The switch fluorescence ratio was 1.13.

Which switch fluorescence ratio does the source give for TTATGCATAA here?
Its switch fluorescence ratio is 1.

TTATGCTAAC was tested. Which switch fluorescence ratio did it give?
Its switch fluorescence ratio is 2.56.

TTATGCTTCA was tested. Which switch fluorescence ratio did it give?
Its switch fluorescence ratio is 1.04.

For TTATGGAAAT, which switch fluorescence ratio is on record?
The switch fluorescence ratio was 1.

For TTATGGATC, which switch fluorescence ratio is on record?
Its switch fluorescence ratio is 0.992.

Which switch fluorescence ratio does the source give for TTATGGGGGC here?
Its switch fluorescence ratio is 0.974.

With TTATGTCTAA as the sequence, how does the switch fluorescence ratio read?
Its switch fluorescence ratio is 1.02.
